These results are taken from US20030143697A1 (published 2003).

Values joined by “and” are separate entries in the source; they are usually repeats but may differ in a detail not shown here. Equal values may be shown once.

The target of assay [1] is T1, recombinant human IL-1β (human, UniProt P01584 117-269). Kind of assay: cell-based or functional assay.
Assay [2] addresses T1, recombinant human IL-1β. Kind of assay: inferred by the filing from the IC50 in the 293-NFκB luciferase reporter assay with 5 pM human IL-1β, not a direct binding assay. (In general: A reporter such as luciferase makes a cellular process visible.)
The target in assay [3] is recombinant human IL-1 (human). In words: cell-based or functional assay.

B1: Human IL-1 Trap 1649 (Fc fusion)
chain: SERCDDWGLDTMRQIQVFEDEPARIKCPLFEHFLKFNYSTAHSAGLTLIWYWTRQDRDLEEPINFRLPENRISKEKDVLWFRPTLLNDTGNYTCMLRNTTYCSKVAFPLEVVQKDSCFNSPMKLPVHKLYIEYGIQRITCPNVDGYFPSSVKPTITWYMGCYKIQNFNNVIPEGMNLSFLIALISNNGNYTCVVTYPENGRTFHLTRTLTVKVVGSPKNAVPPVIHSPNDHVVYEKEPGEELLIPCTVYFSFLMDSRNEVWWTIDGKKPDDITIDVTINESISHSRTEDETRTQILSIKKVTSEDLKRSYVCHARSAKGEVAKAAKVKQKVPAPRYTVHTGAARSCRFRGRHYKREFRLEGEPVALRCPQVPYWLWASVSPRINLTWHKNDSARTVPGEEETRMWAQDGALWLLPALQEDSGTYVCTTRNASYCDKMSIELRVFENTDAFLPFISYPQILTLSTSGVLVCPDLSEFTRDKTDVKIQWYKDSLLLDKDNEKFLSVRGTTHLLVHDVALEDAGYYRCVLTFAHEGQQYNITRSIELRIKKKKEETIPVIISPLKTISASLGSRLTIPCKVFLGTGTPLTTMLWWTANDTHIESAYPGGRVTEGPRQEYSENNENYIEVPLIFDPVTREDLHMDFKCVVHNTLSFQTLRTTVKEASSTFSG[not shown - human IgG1 Fc]
notes: Entry as encoded; The Cys to Gly change is already part of the entry
With B1, the “IC50, luciferase expression in 293-NFκB reporter cells with 5 pM human IL-1β” value with recombinant human IL-1β [1] amounted to 32 pM. The Kd (as a rule, the free concentration of one partner at which half of the binding sites on the other are occupied at equilibrium, for simple one-to-one binding) with recombinant human IL-1β [2] is about 0.03 nM.

B2: IL-1 Trap 1SC569 (Fc fusion)
chain: SERCDDWGLDTMRQIQVFEDEPARIKCPLFEHFLKFNYSTAHSAGLTLIWYWTRQDRDLEEPINFRLPENRISKEKDVLWFRPTLLNDTGNYTCMLRNTTYCSKVAFPLEVVQKDSCFNSPMKLPVHKLYIEYGIQRITCPNVDGYFPSSVKPTITWYMGCYKIQNFNNVIPEGMNLSFLIALISNNGNYTCVVTYPENGRTFHLTRTLTVKVVGSPKNAVPPVIHSPNDHVVYEKEPGEELLIPCTVYFSFLMDSRNEVWWTIDGKKPDDITIDVTINESISHSRTEDETRTQILSIKKVTSEDLKRSYVCHARSAKGEVAKAAKVKQKVPAPRYTVSGGAPMLSEADKCKEREEKIILVSSANEIDVRPCPLNPNEHKGTITWYKDDSKTPVSTEQASRIHQHKEKLWFVPAKVEDSGHYYCVVRNSSYCLRIKISAKFVENEPNLCYNAQAIFKQKLPVAGDGGLVCPYMEFFKNENNELPKLQWYKDCKPLLLDNIHFSGVKDRLIVMNVAEKHRGNYTCHASYTYLGKQYPITRVIEFITLEENKPTRPVIVSPANETMEVDLGSQIQLICNVTGQLSDIAYWKWNGSVIDEDDPVLGEDYYSVENPANKRRSTLITVLNISEIESRFYKHPFTCFAKNTHGIDAAYIQLIYPVTNSG[not shown - human IgG1 Fc]
In the case of B2, the serum IL-6 in C57BL/6 mice 2 h after rhIL-1β (mouse IL-6 ELISA) (fold molar excess) in the assay with recombinant human IL-1β [1] is 50 and 150. In addition, in assay [3], the IL-1-dependent production of IL-6 by MRC5 cells; fold against IL1RI.Fc turned out to be 100 fold and the IL-1-dependent production of IL-6 by MRC5 cells; highest IL-1 concentration blocked by 10 nM Trap was 3 nM.
